# Measured values from the supplement of paper PMC8728848.
# The list shows a part of the results.
# B1: AMA (Arum maculatun) (protein)
# chain: MAKLLLLLLLPAIVGLAVPRSAAAVGSNYMLSGETLNTDGRLTNGELTLIMQVDCNLVLYHGGWQSNTANNGRDCKLTLTDFGELVIKSGTGSTVWSSGSKQSMKGNYAAVVHPEGRLVIYGPSVFKINPSGAGLNGLPLRNIPLTNNMLFSGQVLYGDGTLSARNHKLVMQGDCNMVLYGGKYGWQSNTHGNGKYCFAMLTHKGELVIRDDDFKSVWSSKSSSKQGDYVFILQDDSLAIIYGPAVFSTGSKKMISMVTN
# How the values were obtained:
# Test in all cases: glycan array binding signal (z-score within array); higher = stronger binding
# Conditions in all cases: glycan notation: IUPAC condensed, linker removed
# Fuc(a1-2)Gal = biological target: Fuc(a1-2)Gal
# Procedure, shortened: (§1)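 Glycan array binding is given as a within-array Z-score, which can be read as non-binding when negative. The arrays, 3228 of them, came from the Consortium for Functional Glycomics database and were retained only where the protein sequence was available. Z-scores were averaged across arrays of the same protein sequence at different concentrations or buffers and across linkers.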
# Fuc(a1-2)Gal(b1-3)GalNAc = biological target: Fuc(a1-2)Gal(b1-3)GalNAc
# Procedure, shortened: as §1
# [1] = biological target: Fuc(a1-2)Gal(b1-3)GalNAc(a1-3)[Fuc(a1-2)]Gal(b1-4)Glc
# Procedure, shortened: as §1
# [2] = biological target: Fuc(a1-2)Gal(b1-3)GalNAc(a1-3)[Fuc(a1-2)]Gal(b1-4)GlcNAc
# Procedure, shortened: as §1
# [3] = biological target: Fuc(a1-2)Gal(b1-3)GalNAc(b1-3)Gal
# Procedure, shortened: as §1
# [4] = biological target: Fuc(a1-2)Gal(b1-3)GalNAc(b1-3)Gal(a1-4)Gal(b1-4)Glc
# Procedure, shortened: as §1
# [5] = biological target: Fuc(a1-2)Gal(b1-3)GalNAc(b1-4)[Neu5Ac(a2-3)]Gal(b1-4)Glc
# Procedure, shortened: as §1
# Fuc(a1-2)Gal(b1-3)GlcNAc = biological target: Fuc(a1-2)Gal(b1-3)GlcNAc
# Procedure, shortened: as §1
# [6] = biological target: Fuc(a1-2)Gal(b1-3)GlcNAc(b1-2)Man(a1-3)[Fuc(a1-2)Gal(b1-3)GlcNAc(b1-2)Man(a1-6)]Man(b1-4)GlcNAc(b1-4)GlcNAc
# Procedure, shortened: as §1
# [7] = biological target: Fuc(a1-2)Gal(b1-3)GlcNAc(b1-2)Man(a1-3)[Fuc(a1-2)Gal(b1-3)GlcNAc(b1-2)Man(a1-6)]Man(b1-4)GlcNAc(b1-4)[Fuc(a1-6)]GlcNAc
# Procedure, shortened: as §1
# [8] = biological target: Fuc(a1-2)Gal(b1-3)GlcNAc(b1-3)Gal(b1-4)Glc
# Procedure, shortened: as §1
# [9] = biological target: Fuc(a1-2)Gal(b1-3)GlcNAc(b1-3)GalNAc
# Procedure, shortened: as §1
# [10] = biological target: Fuc(a1-2)Gal(b1-3)GlcNAc(b1-3)[Fuc(a1-2)Gal(b1-3)GlcNAc(b1-6)]GalNAc
# Procedure, shortened: as §1
# [11] = biological target: Fuc(a1-2)Gal(b1-3)GlcNAc(b1-3)[Gal(b1-4)GlcNAc(b1-6)]Gal(b1-4)Glc
# Procedure, shortened: as §1
# [12] = biological target: Fuc(a1-2)Gal(b1-3)GlcNAc(b1-3)[Neu5Ac(a2-6)Gal(b1-4)GlcNAc(b1-6)]Gal(b1-4)Glc
# Procedure, shortened: as §1
# [13] = biological target: Fuc(a1-2)Gal(b1-3)GlcNAc6S
# Procedure, shortened: as §1
# [14] = biological target: Fuc(a1-2)Gal(b1-3)[Fuc(a1-4)]GlcNAc
# Procedure, shortened: as §1
# [15] = biological target: Fuc(a1-2)Gal(b1-3)[Fuc(a1-4)]GlcNAc(b1-2)Man(a1-3)[Fuc(a1-2)Gal(b1-3)[Fuc(a1-4)]GlcNAc(b1-2)Man(a1-3)]Man(b1-4)GlcNAc(b1-4)GlcNAc
# Procedure, shortened: as §1
# [16] = biological target: Fuc(a1-2)Gal(b1-3)[Fuc(a1-4)]GlcNAc(b1-2)Man(a1-3)[Fuc(a1-2)Gal(b1-3)[Fuc(a1-4)]GlcNAc(b1-2)Man(a1-6)]Man(b1-4)GlcNAc(b1-4)[Fuc(a1-6)]GlcNAc(b1-4)[Fuc(a1-6)]GlcNAc
# Procedure, shortened: as §1
# [17] = biological target: Fuc(a1-2)Gal(b1-3)[Fuc(a1-4)]GlcNAc(b1-3)[Fuc(a1-3)[Gal(b1-4)]GlcNAc(b1-6)]Gal(b1-4)Glc
# Procedure, shortened: as §1
# [18] = biological target: Fuc(a1-2)Gal(b1-3)[Fuc(a1-4)]GlcNAc(b1-3)[Gal(b1-4)GlcNAc(b1-6)]Gal(b1-4)Glc
# Procedure, shortened: as §1
# [19] = biological target: Fuc(a1-2)Gal(b1-4)Fuc(a1-3)]GlcNAc(b1-2)Man(a1-3)[Fuc(a1-2)Gal(b1-4)[Fuc(a1-3)]GlcNAc(b1-2)Man(a1-6)]Man(b1-4)GlcNAc(b1-4)GlcNAc
# Procedure, shortened: as §1
# Fuc(a1-2)Gal(b1-4)Glc = biological target: Fuc(a1-2)Gal(b1-4)Glc
# Procedure, shortened: as §1
# Fuc(a1-2)Gal(b1-4)Glc6S = biological target: Fuc(a1-2)Gal(b1-4)Glc6S
# Procedure, shortened: as §1
# Fuc(a1-2)Gal(b1-4)GlcNAc = biological target: Fuc(a1-2)Gal(b1-4)GlcNAc
# Procedure, shortened: as §1
# [20] = biological target: Fuc(a1-2)Gal(b1-4)GlcNAc(b1-2)Man
# Procedure, shortened: as §1
# [21] = biological target: Fuc(a1-2)Gal(b1-4)GlcNAc(b1-2)Man(a1-3)[Fuc(a1-2)Gal(b1-4)GlcNAc(b1-2)Man(a1-6)]Man(b1-4)GlcNAc(b1-4)GlcNAc
# Procedure, shortened: as §1
# [22] = biological target: Fuc(a1-2)Gal(b1-4)GlcNAc(b1-2)Man(a1-3)[Fuc(a1-2)Gal(b1-4)GlcNAc(b1-2)Man(a1-6)]Man(b1-4)GlcNAc(b1-4)[Fuc(a1-6)]GlcNAc
# Procedure, shortened: as §1
# [23] = biological target: Fuc(a1-2)Gal(b1-4)GlcNAc(b1-2)[Fuc(a1-2)Gal(b1-4)GlcNAc(b1-4)]Man(a1-3)[Fuc(a1-2)Gal(b1-4)GlcNAc(b1-2)Man(a1-6)]Man(b1-4)GlcNAc(b1-4)GlcNAc
# Procedure, shortened: as §1
# [24] = biological target: Fuc(a1-2)Gal(b1-4)GlcNAc(b1-3)Gal(b1-4)GlcNAc
# Procedure, shortened: as §1
binder,measurement,setting,value
B1,glycan array binding signal (z-score),Fuc(a1-2)Gal,-0.213
same,glycan array binding signal (z-score),Fuc(a1-2)Gal(b1-3)GalNAc,-0.072
same,glycan array binding signal (z-score),[1],-0.214
same,glycan array binding signal (z-score),[2],-0.222
same,glycan array binding signal (z-score),[3],-0.21
same,glycan array binding signal (z-score),[4],-0.22
same,glycan array binding signal (z-score),[5],-0.214
same,glycan array binding signal (z-score),Fuc(a1-2)Gal(b1-3)GlcNAc,-0.176
same,glycan array binding signal (z-score),[6],0.005
same,glycan array binding signal (z-score),[7],0.153
same,glycan array binding signal (z-score),[8],-0.22
same,glycan array binding signal (z-score),[9],-0.211
same,glycan array binding signal (z-score),[10],-0.202
same,glycan array binding signal (z-score),[11],-0.21
same,glycan array binding signal (z-score),[12],-0.213
same,glycan array binding signal (z-score),[13],-0.207
same,glycan array binding signal (z-score),[14],-0.217
same,glycan array binding signal (z-score),[15],-0.21
same,glycan array binding signal (z-score),[16],0.014
same,glycan array binding signal (z-score),[17],-0.206
same,glycan array binding signal (z-score),[18],-0.217
same,glycan array binding signal (z-score),[19],-0.19
same,glycan array binding signal (z-score),Fuc(a1-2)Gal(b1-4)Glc,-0.216
same,glycan array binding signal (z-score),Fuc(a1-2)Gal(b1-4)Glc6S,-0.208
same,glycan array binding signal (z-score),Fuc(a1-2)Gal(b1-4)GlcNAc,-0.222
same,glycan array binding signal (z-score),[20],-0.205
same,glycan array binding signal (z-score),[21],0.852
same,glycan array binding signal (z-score),[22],0.1
same,glycan array binding signal (z-score),[23],1.02
same,glycan array binding signal (z-score),[24],-0.221
